In paper PMC8429438, “DnaJC7 binds natively folded structural elements in tau to inhibit amyloid formation” (Nature Communications, 2021) one finds Kd data, which are given here for one molecule.

For this assay, the target named is T1, DnaJC7 (full-length, wild type, recombinant) (UniProt Q99615 1-494).
T1 construct: DnaJC7, class-C J-domain protein with TPR1, TPR2a, TPR2b and a C-terminal J domain; called full-length DnaJC7; Plasmid was a gift (A. Joachimiak); also called DnaJC7WT; WT DnaJC7
T1 sequence (looked up): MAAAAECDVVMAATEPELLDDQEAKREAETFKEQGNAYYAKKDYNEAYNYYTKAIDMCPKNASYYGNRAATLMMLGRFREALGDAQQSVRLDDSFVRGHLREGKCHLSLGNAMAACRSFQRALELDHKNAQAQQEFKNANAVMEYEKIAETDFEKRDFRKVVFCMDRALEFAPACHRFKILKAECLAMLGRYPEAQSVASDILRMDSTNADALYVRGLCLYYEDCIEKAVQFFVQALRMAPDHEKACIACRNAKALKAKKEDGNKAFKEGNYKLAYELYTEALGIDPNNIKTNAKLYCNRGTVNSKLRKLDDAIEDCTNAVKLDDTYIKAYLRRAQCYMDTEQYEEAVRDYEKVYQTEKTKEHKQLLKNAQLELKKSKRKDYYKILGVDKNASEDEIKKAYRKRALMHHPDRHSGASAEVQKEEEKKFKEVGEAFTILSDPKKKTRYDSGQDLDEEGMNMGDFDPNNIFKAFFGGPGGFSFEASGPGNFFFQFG
The assay can be described thus: MST; Cy5-labelled wild-type or mutant tau/tauRD titrated with a serial two-fold dilution of DnaJC7 or single DnaJC7 domains; Monolith NT.115; technical triplicates; fit in PALMIST with a 1:1 binding model. The settings on record: both partners purified.

B1: full-length 2N4R P301L tau (natural protein)
chain: not shown
modifications: Cy5 (Cyanine5 NHS ester) label in MST
notes: microtubule-associated protein tau, 2N4R isoform, full length, with the disease-associated P301L mutation; also called full-length P301L tau mutant; source: E. coli BL21 (DE3), pET28b, purified
In the case of B1, the Kd (in general, a measure of binding affinity in units of concentration) is 8.3 ± 2.2 µM.
